PubChem BioAssay AID1345082 (National Center for Advancing Translational Sciences (NCATS), 2018)
The campaign covered roughly 94,000 compounds. About 4,000 (4.3%) were called active. Inconclusive results, whose numbers are uncertain, are shown with a selection of clear calls. The call rests on the fitted dose curve; in most records, active means well fitted inhibition curve with a large enough effect; inconclusive means small, poorly fitted or top-dose-only effect; inactive means no such curve, though single readings can be large or run the other way. Potencies of inconclusive entries are doubtful fits and often do not repeat.

Assay: Cytotoxic Profiling in NIH 3T3 Cell Line of Diverse Libraries Using Quantitative High-Throughput Screening; further: nearly all actives have a fitted effect of over 55% in size
Details: NIH 3T3 viability, CellTiter-Glo ATP luminescence, 48-72 h; series mostly up to 96.7 µM
In short: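 ATP-dependent luminescence (CellTiter-Glo) served as the viability signal for NIH 3T3 cells treated with compound for 48 or 72 hr at 37 °C.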
Potency means the concentration at half of the fitted maximal effect; tags describe the fitted curve by direction and shape.

| SMILES | Potency |
| --- | --- |
| O=C(Nc1cccc(-c2nnc3n2CCCC3)c1)c1ccc(F)cc1F | inactive |
| O=C(CCC1CCN(C(=O)c2ccccc2F)CC1)NCc1ccco1 | inactive |
| COCCCNC(=O)c1cn2cc(-c3cccnc3)sc2n1 | inconclusive: 50.1 µM [inhibitor, partial curve, poor fit] |
| O=C(N[C@H]1C[C@H]2C(=O)NC[C@@H](CCC(=O)N3CCCCC3)N2C1)c1ccc(F)c(Cl)c1 | inactive |
| COc1cccc(CNC(=O)c2cc(-c3ccc(Cl)nc3)nc3c2cnn3C)c1 | inactive |
| CC1=C[C@@H](CNS(C)(=O)=O)[C@H](C(C)C)C[C@H]1CC(=O)NC1CCCC1 | inconclusive: 100 µM [inhibitor, single point] |
| CCCCc1cc(C[C@H]2CNCC[C@H]2CC(=O)NCc2ccc(F)cc2)no1 | inconclusive: 112 µM [inhibitor, partial curve, poor fit] |
| Cc1nnc(-c2cc(-c3cccc(CO)c3)ccn2)n1C1CCCCC1 | inconclusive: 89.1 µM [inhibitor, single point] |
| Cc1cccc(C)c1-c1nc(C(=O)NCc2cccnc2)n2ccccc12 | inconclusive: 39.8 µM [inhibitor, partial curve] |
| CN1CC(=O)N(c2ccccc2F)Cc2c(NC3CCCC3)ncnc21 | inconclusive: 79.4 µM [inhibitor, partial curve] |
| COc1cccc(N2C(=O)NC(=NC3CCCCC3)C23CCN([S+](=O)([O-])c2cccc(OC)c2)C3)c1 (stereo not given) | inactive |
| N#CC1CCN(C(=O)C2CCCN(Cc3cccc(-c4ccsc4)c3)C2)CC1 (stereo not given) | inconclusive: 44.7 µM [inhibitor, partial curve, poor fit] |
| COc1cccc(-c2cc(C(=O)NCC3CCCCC3)c3cnn(C)c3n2)c1 | inconclusive: 31.6 µM [inhibitor, full curve, poor fit] |
| Cn1cc(-c2cn(C)c(=O)n3cc(CNc4ccccc4)nc23)cn1 | inconclusive: 79.4 µM [inhibitor, partial curve] |
| CCC(Cn1cnc(-c2ccccc2)c1-c1ccc(C#N)cc1)N1CCN(C)CC1 (stereo not given) | inconclusive: 79.4 µM [inhibitor, partial curve] |
| Cc1ccsc1CN1CCC2(CC1)CN(c1ccncn1)CC2CO (stereo not given) | inconclusive: 50.1 µM [inhibitor, partial curve, poor fit] |
| COc1cccc(-c2cnc3[nH]cc(CC(=O)NCc4cccnc4)c3c2)c1 | inconclusive: 89.1 µM [inhibitor, partial curve, poor fit] |
| O=C(COc1ccc(Cl)cc1)N1CCC(Cc2nc(-c3ccccc3)no2)CC1 | inconclusive: 11.2 µM [inhibitor, full curve, poor fit] |
| COc1cccc(NC(=O)c2ccc3c(c2)NC(C)(COCCN(C)C)CO3)c1 (stereo not given) | inconclusive: 89.1 µM [inhibitor, partial curve] |
| CCCNC(=O)N1CCc2c(sc3ncnc(N4CCN(C)CC4)c23)C1 | inactive |
| O=C1NCc2ccccc2CC12CCCN2Cc1cccc(Cl)c1 (stereo not given) | inconclusive: 56.2 µM [inhibitor, partial curve, poor fit] |
| CC(NC(=O)C1(N2CCCCC2)Cc2ccccc2C1)c1cnn(C)c1 (stereo not given) | inactive |

| SMILES | Potency |
| --- | --- |
| Cn1cc(CN(Cc2c(C(=O)N3CCCC3)nc3sccn23)C2CC2)cn1 | inactive |
| CC(=O)Nc1ccc(C(=O)N2CCN(c3cc(-c4ccc(F)cc4)[nH]n3)CC2)cc1 | inconclusive: 44.7 µM [inhibitor, partial curve, poor fit] |
| Cc1cnc(CC2CCN(C(=O)NCc3ccccc3)C2)n1CC1CC1 (stereo not given) | inactive |
| COc1cccc(C(O)c2nc(C(=O)Nc3ccccc3)c(C)o2)c1 (stereo not given) | inconclusive: 79.4 µM [inhibitor, partial curve, poor fit] |
| Cc1ccsc1-c1[nH]nc2ncc(-c3cccnc3)nc12 | inconclusive: 10 µM [inhibitor, full curve, poor fit] |
| COCC(=O)N1CCC2(CC1)CC(=O)N(c1ccccc1)c1ccccc1O2 | inactive |
| COc1cccc(CN2CC[C@@H]3C(=O)NCCCCCCN(Cc4ccncc4)[C@@H]3C2)c1OC | inactive |
| Cc1cccc(OCC(=O)N2C[C@@H](CO)[C@H](c3ccccn3)C2)c1 | inconclusive: 79.4 µM [inhibitor, partial curve, poor fit] |
| COc1ccc(CN2Cc3[nH]nc(-c4cccc(OC)c4OC)c3CC2=O)cc1 | inconclusive: 56.2 µM [inhibitor, partial curve, poor fit] |
| COc1ccc(-c2ccc3ncn(C4CC4)c(=O)c3n2)cn1 | inconclusive: 89.1 µM [inhibitor, partial curve, poor fit] |
| CC(C)c1ccc(S(=O)(=O)N2CC(c3nc(-c4ccncc4)no3)C2)cc1 | inactive |
| O=C(Nc1ccc2[nH]ccc2c1)c1ccc(-c2ncc3cnc(C4=CCOCC4)cn23)cc1 | inconclusive: 56.2 µM [inhibitor, partial curve, poor fit] |
| O=C(c1cn(C2CN(Cc3ccc(F)cc3F)C2)nn1)N1CCOCC1 | inactive |
| COc1ccc(-c2ccc(C(=O)N3CCN(C(=O)C4CC4)CC3)cc2)nn1 | inactive |
| O=C(c1ccccc1)N1CCn2c(nn(-c3cccc(Cl)c3)c2=O)C1 | inactive |
| COc1ccc(-n2nc(C)c([C@H]3C=C[C@@H](OC(=O)Nc4cccc(F)c4)C3)c2C)cc1 | active: 28.2 µM |
| CC(C)(C)CC(=O)N1CCN2C(=O)c3cc(-c4ccccc4)ccc3NC(=O)[C@H]2C1 | inconclusive: 39.8 µM [inhibitor, partial curve, poor fit] |
| COc1ccc(CN[C@@H]2CCC[C@@H](C(=O)NC3CCOCC3)CC(=O)N(C)C2)cc1 | inactive |
| COc1ccc(Cl)cc1-c1ccc2c(c1)C(=O)N1CCN(C(=O)CN)C[C@H]1C(=O)N2 | active: 100 µM |
| COc1ccc(-c2cccc(C(=O)NCc3ccccc3Cl)c2)nn1 | inconclusive: 50.1 µM [inhibitor, partial curve, poor fit] |
| COc1ccc(-c2c(C(=O)NCCc3ccccc3)nc3sccn23)cc1 | inconclusive: 50.1 µM [inhibitor, partial curve, poor fit] |
| CCCn1cc(-c2ccncc2)cc1C(=O)NC(C)c1ccc(OC)cc1 (stereo not given) | inconclusive: 50.1 µM [inhibitor, partial curve, poor fit] |

| SMILES | Potency |
| --- | --- |
| Cc1ccsc1-c1[nH]nc2ncc(-c3cccc(CO)c3)nc12 | inconclusive: 56.2 µM [inhibitor, partial curve, poor fit] |
| COc1ccc(-c2cc(C[C@H]3CNCC[C@H]3CC(=O)NCCN(C)C)no2)cc1 | inactive |
| Cc1ccc(C)c(OCC(=O)c2ccc3c(c2)N(CCCC(=O)N2CCCC2)C(=O)CO3)c1C | inactive |
| CCN1c2cc(C(=O)Nc3ccc(N(C)C)cc3)ccc2C(=O)N2CCCCC21 (stereo not given) | inconclusive: 28.2 µM [inhibitor, full curve, poor fit] |
| CC1=C[C@@H](CN2CCN(c3ccc(F)cc3)CC2)[C@H](C(C)C)C[C@H]1Cc1nnc(-c2cncn2C)o1 | inconclusive: 44.7 µM [inhibitor, partial curve, poor fit] |
| Cc1ccccc1-c1cc(-c2c(C)noc2C)c2cncn2c1 | inconclusive: 31.6 µM [inhibitor, partial curve, poor fit] |
| O=C(Nc1ccccc1)C1=NO[C@@H]2CN(c3ccnc(N4CCOCC4)c3)C[C@H]12 | inconclusive: 31.6 µM [inhibitor, full curve] |
| Cc1ccc(C(=O)N2CC[C@@H]3COCCN(C)[C@@H]3C2)s1 | inconclusive: 70.8 µM [inhibitor, single point] |
| CCN1c2cc(C(=O)Nc3ccccc3)ccc2C(=O)N2CCCCC21 (stereo not given) | inconclusive: 50.1 µM [inhibitor, partial curve, poor fit] |
| COc1ccc(Cl)cc1C(C(=O)O)N1CCCN(c2ncccn2)CC1 (stereo not given) | inactive |
| COc1cccc(-c2cccc(COc3cnc4c(ccn4CC(=O)O)c3)c2)c1F | inconclusive: 56.2 µM [inhibitor, partial curve, poor fit] |
| COCCN1CC2(CCC1=O)CCN(C(=O)C1CC=CCC1)CC2 (stereo not given) | inactive |
| COc1ccc2ccc(OCc3nc(C(=O)N4CCCC(C)(CO)C4)co3)cc2c1 (stereo not given) | inconclusive: 39.8 µM [inhibitor, partial curve, poor fit] |
| C=CCCC(=O)N1CCC2(CC1)[C@H](C(=O)OCC)[C@@H](OC)C(=O)N2C | inconclusive: 50.1 µM [inhibitor, single point] |
| O=C(NCCc1ccc(F)cc1)C1CCN(C(=O)c2ccc(-c3cccs3)cc2)CC1 | inconclusive: 22.4 µM [inhibitor, full curve] |
| O=C(Cc1ccccc1Cl)N1CCN(c2cc(-c3ccccc3)[nH]n2)CC1 | inconclusive: 31.6 µM [inhibitor, single point] |
| NC(=O)c1cccc(-c2ncc3c(n2)OCCN(CC2CC2)C3=O)c1 | inconclusive: 100 µM [inhibitor, partial curve] |
| O=C1NC(=NC2CCCC2)C2(CCN(Cc3ccsc3)C2)N1c1cccnc1 (stereo not given) | inactive |
| CN1C(=O)CCC2(CNC(=O)c3ccsc3)CCC=C12 (stereo not given) | inactive |
| COc1cccc(NC(=O)c2ccnc(-c3nnc4ccc(Nc5ccccc5)nn34)c2)c1 | active: 35.5 µM |
| O=C(Nc1ccc2c(c1)CN(Cc1ccc(Cl)cc1)C(=O)CO2)c1ccccc1 | inconclusive: 50.1 µM [inhibitor, partial curve, poor fit] |
